The list shows a part of the results. These are noisy estimates, calculated here from bound and input reads.

This assay has as its target T1, Pho4 (S. cerevisiae) (UniProt P07270).
T1 sequence: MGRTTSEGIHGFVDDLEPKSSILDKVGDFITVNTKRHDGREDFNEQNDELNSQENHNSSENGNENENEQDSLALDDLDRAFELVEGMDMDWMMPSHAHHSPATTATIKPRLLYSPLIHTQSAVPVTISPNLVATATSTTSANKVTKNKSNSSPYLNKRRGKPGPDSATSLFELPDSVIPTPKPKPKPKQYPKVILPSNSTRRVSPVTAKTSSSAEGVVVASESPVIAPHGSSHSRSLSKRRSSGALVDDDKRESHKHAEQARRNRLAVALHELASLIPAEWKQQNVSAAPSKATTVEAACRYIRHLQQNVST
The experiment in a line: relative binding free energy (BET-seq); higher = weaker binding. To be noted: reference: library average.
On to TGATGCACGTGATGTA, for which the “relative binding free energy” value was -0.02 kcal/mol.

Regarding GGATGCACGTGGAAGA, the “relative binding free energy” value was 0.21 kcal/mol.

Consider ATATGCACGTGTATGA, for which the “relative binding free energy” value is -0.11 kcal/mol.

For GGGAACACGTGTCATT, the “relative binding free energy” value was found to be 0.26 kcal/mol.

For the sequence TATGTCACGTGTGATT, the “relative binding free energy” value was determined as 0.15 kcal/mol.

Take AGTAGCACGTGAGGGT: the “relative binding free energy” value is 0.2 kcal/mol.

For the sequence GGTAACACGTGTAGTG, the “relative binding free energy” value was 0.15 kcal/mol.

For AGAAACACGTGATGTG, the “relative binding free energy” value amounted to 0.2 kcal/mol.

Take GTGTGCACGTGTAACG: the “relative binding free energy” value stood at 0.04 kcal/mol.

For the sequence GGAGGCACGTGGGAAA, the “relative binding free energy” value was -0.12 kcal/mol.

For the sequence TGGGGCACGTGTTTTA, the “relative binding free energy” value was -0.01 kcal/mol.

In the case of TAAAACACGTGGTTGG, the “relative binding free energy” value was -0.1 kcal/mol.

Take ATTTGCACGTGAGTGT: the “relative binding free energy” value was 0.2 kcal/mol.

For the sequence TTTATCACGTGAAGTT, the “relative binding free energy” value came out at 0.23 kcal/mol.

In the case of GAGATCACGTGGGTGA, the “relative binding free energy” value was 0.2 kcal/mol.

For TTAGTCACGTGCTTTG, the “relative binding free energy” value was -0.03 kcal/mol.

Turning to AGTTTCACGTGGTCGC, the “relative binding free energy” value came out at 0.25 kcal/mol.

As to AATTTCACGTGGACTT, the “relative binding free energy” value turned out to be 0.25 kcal/mol.

As to ATAGCCACGTGGTGGT, the “relative binding free energy” value was -0.31 kcal/mol.

Regarding TTGAGCACGTGGCGTA, the “relative binding free energy” value is -0.32 kcal/mol.

As for GGTTACACGTGTGCAG, the “relative binding free energy” value was found to be 0.13 kcal/mol.

In the case of TCGGTCACGTGTGAGA, the “relative binding free energy” value came to 0.06 kcal/mol.

With ATTGCCACGTGGGATT, the “relative binding free energy” value was -0.02 kcal/mol.

On to TATTTCACGTGTTATA, for which the “relative binding free energy” value stood at 0.2 kcal/mol.

For TGGAGCACGTGAGCAT, the “relative binding free energy” value was determined as 0.14 kcal/mol.

For TTATCCACGTGTGGTT, the “relative binding free energy” value is -0.05 kcal/mol.

In the case of TAAGGCACGTGTTTAA, the “relative binding free energy” value is -0.08 kcal/mol.

In the case of GTGTGCACGTGGGGAT, the “relative binding free energy” value was -0.13 kcal/mol.

GGTGTCACGTGATTTT: the “relative binding free energy” value worked out at 0.25 kcal/mol.

TCGGTCACGTGATTGA: the “relative binding free energy” value stood at 0.38 kcal/mol.

As for AGGCACACGTGGAGTT, the “relative binding free energy” value came to 0.18 kcal/mol.

Take ATTCTCACGTGGAGGT: the “relative binding free energy” value was 0.22 kcal/mol.

On to CAGTTCACGTGGTGAG, for which the “relative binding free energy” value turned out to be 0.16 kcal/mol.

As for AATAGCACGTGATTGT, the “relative binding free energy” value was determined as 0.05 kcal/mol.

With ATTTGCACGTGGGTGC, the “relative binding free energy” value is -0.25 kcal/mol.

Turning to TTGTACACGTGTAAGT, the “relative binding free energy” value worked out at 0.25 kcal/mol.

In the case of GGTTTCACGTGGCACG, the “relative binding free energy” value was found to be 0.1 kcal/mol.

Turning to ACCGGCACGTGGTTGT, the “relative binding free energy” value was -0.16 kcal/mol.

As to ATTGCCACGTGGCTTG, the “relative binding free energy” value was -0.11 kcal/mol.

Take TCTGTCACGTGGAGAT: the “relative binding free energy” value was 0.09 kcal/mol.

On to TGGGCCACGTGCATGG, for which the “relative binding free energy” value is -0.24 kcal/mol.

Turning to GTGGACACGTGGAAGT, the “relative binding free energy” value amounted to 0.18 kcal/mol.

Regarding GGTGGCACGTGAGAAT, the “relative binding free energy” value worked out at 0.16 kcal/mol.

TGTCGCACGTGTATGG: the “relative binding free energy” value is -0.1 kcal/mol.

In the case of TAATGCACGTGAAGCG, the “relative binding free energy” value is 0.35 kcal/mol.

On to AGGCTCACGTGGCTGG, for which the “relative binding free energy” value was 0.23 kcal/mol.

On to TTCTGCACGTGGGGGT, for which the “relative binding free energy” value is -0.07 kcal/mol.

Regarding ATGTACACGTGATGTG, the “relative binding free energy” value turned out to be 0.33 kcal/mol.

As for TCCGTCACGTGGGGGA, the “relative binding free energy” value was 0.01 kcal/mol.

For the sequence TCAGTCACGTGGGTTA, the “relative binding free energy” value stood at 0.1 kcal/mol.

Take GTAGACACGTGGTTCG: the “relative binding free energy” value is 0.06 kcal/mol.

With TATGGCACGTGAGCTG, the “relative binding free energy” value was -0.01 kcal/mol.

Regarding ATGTGCACGTGACTTG, the “relative binding free energy” value was found to be 0.03 kcal/mol.

For the sequence TGGTACACGTGGGATG, the “relative binding free energy” value was 0.03 kcal/mol.

As for ATATTCACGTGGGGAG, the “relative binding free energy” value came out at 0.21 kcal/mol.

As to TTCAGCACGTGGTTGA, the “relative binding free energy” value is -0.09 kcal/mol.

Turning to TGCCTCACGTGGTGGG, the “relative binding free energy” value was determined as 0.02 kcal/mol.

Consider GATGGCACGTGTGGGG, for which the “relative binding free energy” value came to 0 kcal/mol.

With GACATCACGTGGTTTG, the “relative binding free energy” value was 0.23 kcal/mol.

For the sequence ATGCTCACGTGGTAGA, the “relative binding free energy” value stood at 0.14 kcal/mol.

TTCAGCACGTGTTGCG: the “relative binding free energy” value is -0.07 kcal/mol.

As to AGCGTCACGTGGAGGT, the “relative binding free energy” value came out at 0.03 kcal/mol.

AGGATCACGTGGGAGG: the “relative binding free energy” value was found to be 0.1 kcal/mol.

Take TCTAACACGTGGTGGA: the “relative binding free energy” value is 0 kcal/mol.

As for CGTGACACGTGTTAGT, the “relative binding free energy” value is -0.01 kcal/mol.

Take GGTTACACGTGTGGGT: the “relative binding free energy” value was found to be 0.24 kcal/mol.

In the case of GATGTCACGTGGAGGA, the “relative binding free energy” value was 0.12 kcal/mol.

In the case of GAGGTCACGTGTGAGG, the “relative binding free energy” value was determined as 0.27 kcal/mol.

Regarding GCAGTCACGTGGGGAG, the “relative binding free energy” value is -0.01 kcal/mol.

Consider ATGCGCACGTGCAGGG, for which the “relative binding free energy” value was -0.17 kcal/mol.

Consider TGGGTCACGTGGCTAG, for which the “relative binding free energy” value stood at 0.24 kcal/mol.

On to GCTGGCACGTGATGGA, for which the “relative binding free energy” value came out at 0.02 kcal/mol.

Consider CCAGGCACGTGGGGTG, for which the “relative binding free energy” value is -0.32 kcal/mol.

For the sequence GGTGGCACGTGTAGAT, the “relative binding free energy” value turned out to be 0.24 kcal/mol.

TTGTTCACGTGGTCGC: the “relative binding free energy” value is 0.23 kcal/mol.

As for AAGGGCACGTGTGCGA, the “relative binding free energy” value is -0.2 kcal/mol.

On to AGGAACACGTGCTGGG, for which the “relative binding free energy” value is -0.04 kcal/mol.

With AGCTGCACGTGTGAGG, the “relative binding free energy” value was determined as 0.1 kcal/mol.

As to ATATGCACGTGGGTAG, the “relative binding free energy” value was -0.27 kcal/mol.

As to ACAGACACGTGGTTTT, the “relative binding free energy” value was found to be 0.04 kcal/mol.

On to GATGGCACGTGAATGA, for which the “relative binding free energy” value was 0.18 kcal/mol.

As to ATTTACACGTGATGTA, the “relative binding free energy” value was determined as 0.15 kcal/mol.

Consider CGGTGCACGTGATATT, for which the “relative binding free energy” value came to 0.23 kcal/mol.

As to TGATTCACGTGTGAGA, the “relative binding free energy” value is 0.34 kcal/mol.

For the sequence AAGGCCACGTGGGTAT, the “relative binding free energy” value was -0.12 kcal/mol.

Regarding GGTAGCACGTGATCGT, the “relative binding free energy” value turned out to be 0.29 kcal/mol.

Regarding TGGGTCACGTGTTGTC, the “relative binding free energy” value stood at 0.12 kcal/mol.

As for TGTAACACGTGTATAG, the “relative binding free energy” value came out at 0.08 kcal/mol.

Take AAAGGCACGTGATGGG: the “relative binding free energy” value was -0.05 kcal/mol.

On to TCTGTCACGTGAGCGT, for which the “relative binding free energy” value was determined as 0.19 kcal/mol.

As to AACTGCACGTGTGTAG, the “relative binding free energy” value is 0.07 kcal/mol.

GAGGTCACGTGGAGGT: the “relative binding free energy” value was 0.21 kcal/mol.

On to TGTTTCACGTGCTAGT, for which the “relative binding free energy” value was 0.27 kcal/mol.

Regarding GTTCGCACGTGATGAG, the “relative binding free energy” value was 0.12 kcal/mol.

On to GAGTACACGTGAGTGT, for which the “relative binding free energy” value was 0.23 kcal/mol.

GTAGACACGTGTCGTT: the “relative binding free energy” value amounted to 0.1 kcal/mol.

Take GTTTACACGTGCATGT: the “relative binding free energy” value stood at 0.02 kcal/mol.

Take TGGAACACGTGGTCGT: the “relative binding free energy” value stood at 0.22 kcal/mol.

Consider CGCTACACGTGGAGGG, for which the “relative binding free energy” value is 0.1 kcal/mol.

As for AGATTCACGTGTAGGT, the “relative binding free energy” value amounted to 0.24 kcal/mol.

TTGTCCACGTGTTATG: the “relative binding free energy” value is 0.05 kcal/mol.

As to TGTGGCACGTGCTGGT, the “relative binding free energy” value was -0.06 kcal/mol.

As for GTGATCACGTGACGGG, the “relative binding free energy” value is 0.14 kcal/mol.

As to TATTGCACGTGGGAAC, the “relative binding free energy” value is -0.03 kcal/mol.

With ATTGCCACGTGTGGTA, the “relative binding free energy” value is -0.04 kcal/mol.

For the sequence CTGTACACGTGGTATA, the “relative binding free energy” value is 0 kcal/mol.

TTAGTCACGTGGTTGA: the “relative binding free energy” value amounted to 0.07 kcal/mol.

Consider TTAGTCACGTGTGAAA, for which the “relative binding free energy” value came out at 0.23 kcal/mol.

With GGTATCACGTGGGGTT, the “relative binding free energy” value is 0.07 kcal/mol.

For the sequence AGTAGCACGTGGGTAT, the “relative binding free energy” value was -0.18 kcal/mol.

As to AGGATCACGTGTGGTG, the “relative binding free energy” value stood at 0.24 kcal/mol.

On to GTTCTCACGTGGTGGA, for which the “relative binding free energy” value was 0.3 kcal/mol.

For the sequence TGTGTCACGTGCCATG, the “relative binding free energy” value was 0.04 kcal/mol.

In the case of TATGTCACGTGAGTCG, the “relative binding free energy” value worked out at 0.21 kcal/mol.

For GAGTGCACGTGAGGGA, the “relative binding free energy” value worked out at 0.14 kcal/mol.

Values taken from the BET-seq Pho4 binding data (Le et al. 2018).
